Assay results published in patent US9969812B2, “Anti human Notch4 antibody” (Eisai R&D Management Co., Ltd., priority 2015, dated 2018).

What was measured:
Format in all cases: binding
[1] = molecular target: T1, Human Notch4-NRR-SEAP-HA-His (Homo sapiens, UniProt Q99466); assay: BIAcore T100 kinetics analysis, Antibody B captured, human Notch NRR domain injected
T1 construct: secretory alkaline phosphatase (SEAP) (C); HA (C); 10x His (C); made in house
T1 sequence (Q99466 1046-1445): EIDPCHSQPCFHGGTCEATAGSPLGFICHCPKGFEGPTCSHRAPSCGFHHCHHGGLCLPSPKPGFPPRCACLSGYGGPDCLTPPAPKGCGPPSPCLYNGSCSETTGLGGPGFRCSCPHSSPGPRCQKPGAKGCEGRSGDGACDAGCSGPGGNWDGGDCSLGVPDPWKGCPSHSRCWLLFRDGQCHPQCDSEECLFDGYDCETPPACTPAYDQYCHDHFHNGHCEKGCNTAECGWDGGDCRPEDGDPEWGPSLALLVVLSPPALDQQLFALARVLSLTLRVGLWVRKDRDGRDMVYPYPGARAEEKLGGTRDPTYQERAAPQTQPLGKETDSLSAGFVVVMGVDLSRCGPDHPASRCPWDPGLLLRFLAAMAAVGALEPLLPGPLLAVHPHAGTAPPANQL

Mouse Notch4-NRR = assay: BIACORE kinetic analysis, Antibody B captured, Notch4-NRR-SEAP-His injected
Procedure: (§1) Kinetic analysis of the interaction of human, cynomolgus monkey, mouse, and rat Notch4-NRR domains with Antibody B was carried out with BIACORE. Antibody B was purified with protein A affinity chromatography from the culture supernatant of a stable CHO cell line transfected with Antibody B. Human, monkey, mouse, and rat Notch4-NRR domains were prepared as fusion proteins with secretory alkaline phosphatase (SEAP) and 10× histidine tag. The genes for these proteins were transfected into Expi293F cells in Opti-MEM (INVITROGEN) using ExpiFectamine 293. These cells were cultured in Expi293 Expression Medium (INVITROGEN). Briefly, cells were diluted to 7.5×10^7 cells/25.5 mL, and transfected by ExpiFectamine 293 reagent on Day 0. About 16 hours after transfection, 150 uL of ExpiFectamine 293 Transfection Enhancer 1 and 1.5 mL of ExpiFectamine 293 Transfection Enhancer 2 were added to each flask. The supernatant was collected on Day 4. These antigens were purified with Ni-NTA Superflow column (QIAGEN). The interaction was analyzed as below. The purified Antibody B was captured by anti-human IgG Fc antibody fixed on a CM5 sensor chip (GE healthcare). The purified Notch4-NRR fusion proteins were injected onto the sensor chip at 8 different concentrations, and the interaction and dissociation thereof were observed as per manufacturer's instructions.

Human Notch4-NRR = molecular target: T2, Human Notch4-NRR (Homo sapiens, UniProt Q99466); assay: as above
T2 construct: Human, monkey, mouse, and rat Notch4-NRR domains were prepared as fusion proteins; secretory alkaline phosphatase (SEAP); 10x His; made in house; host or cells: Expi293F cells
T2 sequence (Q99466 1046-1445 limits assumed): T1 sequence (Q99466 1046-1445)
Procedure: as §1

[2] = system: Cynomolgus monkey Notch4-NRR; assay: as above
Procedure: as §1

B1: Antibody B: humanized anti-human Notch4 antibody, heavy chain variable region HK3, light chain variable region L3, C-terminal Lys deleted (antibody)
heavy: EVQLVESGGGLVQPGGSLRLSCAASGFTFSSYGMSWVRQAPGKGLELVATINSNGGRTYYPDSVKGRFTISRDNSKNTLYLQMGSLKAEDMAVYYCARDQGFAYWGQGTLVTVSSASTKGPSVFPLAPCSRSTSESTAALGCLVKDYFPEPVTVSWNSGALTSGVHTFPAVLQSSGLYSLSSVVTVPSSNFGTQTYTCNVDHKPSNTKVDKTVERKCCVECPPCPAPPAAAPSVFLFPPKPKDTLMISRTPEVTCVVVDVSHEDPEVQFNWYVDGVEVHNAKTKPREEQFNSTFRVVSVLTVVHQDWLNGKEYKCKVSNKGLPAPIEKTISKTKGQPREPQVYTLPPSREEMTKNQVSLTCLVKGFYPSDIAVEWESNGQPENNYKTTPPMLDSDGSFFLYSKLTVDKSRWQQGNVFSCSVMHEALHNHYTQKSLSLSPG
light: EIVMTQSPATLSVSPGERATLSCKASQDVGTAVAWYQQKPGQAPRLLIYWASTRHTGIPARFSGSGSGTEFTLTISSLQSEDFAVYYCQQYSSYPWTFGQGTKVEIKRTVAAPSVFIFPPSDEQLKSGTASVVCLLNNFYPREAKVQWKVDNALQSGNSQESVTEQDSKDSTYSLSSTLTLSKADYEKHKVYACEVTHQGLSSPVTKSFNRGEC
Ka [1]: 27200 M⁻¹ s⁻¹
Kd [1]: 0.000831 s⁻¹
Ka (Mouse Notch4-NRR): 601000 M⁻¹ s⁻¹
Kd (Mouse Notch4-NRR): 0.00727 s⁻¹
Ka (Human Notch4-NRR): 317000 M⁻¹ s⁻¹
Kd (Human Notch4-NRR): 0.00118 s⁻¹
Ka [2]: 295000 M⁻¹ s⁻¹
Kd [2]: 0.00106 s⁻¹
